# Source: the RNAGym collection of RNA variant scans (doi:10.7554/elife.90254)
# Read counts are not given, so values of variants with three or more changes are uncertain.
# B1: OR4K15 (parent)
# chain: GUUAACGGUCAUAGGCCAUGGAAACUAGGAGCACCAUUUCGCUGCCAGUGAAGAAAUGAACAAAGAAAAUCUGGGCCAGGCAGGCAUCAAAAGAAAUAGUCUUGCGCUCAACCAGAAAGUCUGUAAUCAUUUUAAGGGUA
# Variants of: B1
# Assay: self-cleavage, relative activity (ratio to wild type); higher = more cleavage; in vitro, sequencing; the parent is a self-cleaving ribozyme
row,Variant,self-cleavage
1,A55G A64G A86G G106U,0.02
2,A55G A64G A89G U102C,1.1
3,A55G A64G A140U,1.58
4,A55G A64G G83U A91G,0.19
5,A55G A64G G84U U87C U97C C113U,0.02
6,A55G A64G U103C U131C U132C,0.78
7,A55G A64G U127C,1.38
8,A55G A66G A67G,0.88
9,A55G A66G A117C,0.41
10,A55G A66G G74A A111G U120C,0.01
11,A55G A67C A110G A114G A126G,0.1
12,A55G A67U C85U,0.82
13,A55G A68G U87C,1.53
14,A55G A69G U108C,0.04
15,A55G A69U A78U A92G G137C,0.45
16,A55G A78C U102C,0.6
17,A55G A78G C113G,0.02
18,A55G A78G U102C,0.25
19,A55G A78U A96G,0.37
20,A55G A78U U87C U122A,0.1
21,A55G A82C U120C,0.13
22,A55G A82G A86G A117G,0.28
23,A55G A82G A98G,0.11
24,A55G A82G U87A,0.42

row,Variant,self-cleavage
1,A55G A82U A94G U132C,0.17
2,A55G A86G A96G,0.39
3,A55G A86G A117G,0.6
4,A55G A86G U127C,0.12
5,A55G A86U A89G A94G U103A U133C,0.59
6,A55G A89G A116G U122A,0.21
7,A55G A90G U102C,0.62
8,A55G A90U A135G,2.84
9,A55G A94C A110G A116G,0.03
10,A55G A95U A111U,0.04
11,A55G A96G U131C,1.8
12,A55G A110G A114U,0.03
13,A55G A110G A118U U127C,0.01
14,A55G A111C A114G,0.01
15,A55G A114G U139C,0.47
16,A55G A116G U124C,0.11
17,A55G A118G U131C,0.83
18,A55G A126G U132C,1.25
19,A55G C71U A82G,0.36
20,A55G C76A A117G,0.1
21,A55G G74A U132C U139C,0.16
22,A55G G80U A92G,0.19
23,A55G U57C U102G,0.58
24,A55G U57G A66G U97C U108A G138A,0.01

row,Variant,self-cleavage
1,A55G U70C A96G,1.48
2,A55G U70C A114U A118G,0.02
3,A55G U70C U103C A114U,0.02
4,A55G U70C U133C,2.22
5,A55G U87C A116G,0.09
6,A55G U87C U131C,1.74
7,A55G U100A C121G,1.03
8,A55G U120C U127A,1.29
9,A55U A59G A82G U102C A118G U120C,0.1
10,A55U A60G A117G U131C,0.39
11,A55U A60U A94C,0.44
12,A55U A62U A63G A135U,0.15
13,A55U A62U A68G A82G A110C,0.08
14,A55U A63G U100C A118G,1.3
15,A55U A67G A114G U132C,0.19
16,A55U A67G U122C,1.48
17,A55U A82U A110G,0.04
18,A55U A95G A111U,0.2
19,A55U A96G U108C U139C,0.01
20,A55U A116G A140G,0.92
21,A55U U57A A67G A68G,0.81
22,A55U U57C A95G A117G,2.32
23,A55U U70C G119A,0.54
24,A55U U87C A114G U122C U133A,0.03

row,Variant,self-cleavage
1,A56C A78U A140U,0.14
2,A56C A96G U103C,1.17
3,A56C G79A A89G U127C,0.07
4,A56G A59G A86U A91G A94G,0.77
5,A56G A59G A125G,0.3
6,A56G A59G U103C A117G,0.67
7,A56G A59U A62U,1.37
8,A56G A60G A63G U130C,0.91
9,A56G A60G A82G U139C,0.21
10,A56G A60G A111G,0.03
11,A56G A60G A116G A117G,0.15
12,A56G A60G A116G A134G,0.14
13,A56G A60G G75C,0.1
14,A56G A60G U87C,0.4
15,A56G A60G U108A,0.22
16,A56G A60U U100A U103C,0.16
17,A56G A62C U130G,1.02
18,A56G A62G A96G,0.82
19,A56G A63U A111G,0.03
20,A56G A63U C76A U102C G106C U130C,0
21,A56G A64G A78G A95G,0.23
22,A56G A64G A90U,0.83
23,A56G A64G U70G A92G A111G,0.02
24,A56G A64G U131C U132C,1.4

row,Variant,self-cleavage
1,A56G A66G U87C,1.75
2,A56G A67G A78G A89C,0.2
3,A56G A67G A91U A94G U102C C109U,0.37
4,A56G A67G C81U,0.39
5,A56G A67G C109A,0.21
6,A56G A67G G119U,1.1
7,A56G A67U A114G U139C A140G,1.81
8,A56G A67U U87C U102C A135U,2.62
9,A56G A68C U132C,1.39
10,A56G A68G U72A A94G,0.07
11,A56G A68G U72A A110G,0.09
12,A56G A69G G74U A90G U130C,0.11
13,A56G A69G U97G A111G,0.01
14,A56G A69G U100A U132C,0.19
15,A56G A69G U103C A117G,0.56
16,A56G A78C A92U U130C,0.38
17,A56G A78U U87C A95G,0.37
18,A56G A82U C109U G115A,0.01
19,A56G A86G A92G,1.03
20,A56G A89G A111G,0.12
21,A56G A89G U108C,0.04
22,A56G A90G U102A A114U,0
23,A56G A91G A94G U130A,1.05
24,A56G A91G A95G,1.37

row,Variant,self-cleavage
1,A56G A92C U102A,0.62
2,A56G A92G G104C G106U G115A,0
3,A56G A96C A111G U139C,0.01
4,A56G A96G U100C C107U,0.02
5,A56G A98G U132A,0.31
6,A56G A110G U127C,0.06
7,A56G A114U A116G,0.01
8,A56G A116G A129G,0.13
9,A56G A126G A129G,0.61
10,A56G A129G A134G,1.18
11,A56G C76U U87C A140G,0.08
12,A56G C76U U102A,0.05
13,A56G C77U U122C,1.69
14,A56G C105A U124C A125G G138A,0
15,A56G G75C U108C,0.02
16,A56G U57C A60G A67G A68G U130C,0.58
17,A56G U57C A64U A126C,0.51
18,A56G U57C A78U,0.24
19,A56G U57C A94G,0.62
20,A56G U57C A111G A129G U131C,0.01
21,A56G U57C A118G,0.37
22,A56G U70A A92G A114G A117G,0.03
23,A56G U70C A110U,0.34
24,A56G U70C A110U A114G U122C,0.03

row,Variant,self-cleavage
1,A56G U70C G75A C81U U102C U130C,0.02
2,A56G U70C U108C A111G,0
3,A56G U72A A95G,0.37
4,A56G U72C A95G U139G,0.36
5,A56G U72C U139C,0.35
6,A56G U87C A117G A125C,1.45
7,A56G U100C U102A,1.71
8,A56G U102A U131A,1.23
9,A56G U103C U130C,1.14
10,A56G U108C A135U,0.02
11,A56U A59G G75A,0.31
12,A56U A67G G79A,0.46
13,A56U A86G A89G,1.75
14,A56U A98G C105U A134G,0.03
15,A56U A118G A126G,0.91
16,A56U U57C A95G,2.22
17,U57A A62G A129G,0.71
18,U57A A62G U100C G136A,2.91
19,U57A A63G A82G,0.69
20,U57A A66G U100C A116G U122C,1.79
21,U57A A67G A82U,0.26
22,U57A A68G U132C,0.97
23,U57A A69G A110G A114G,0.06
